# In publication PMC4336329 (PLoS ONE, 2015):
# In all, about 310,000 compounds went through this assay and about 14,000 (4.5%) showed an effect of 50% or more. Effects have a minus sign here. The list shows a part of the results.
# Molecular target: human ether-à-go-go-related gene (hERG) potassium channel (human, UniProt Q12809)
# Assay: primary screen, population patch clamp on CHO cells stably expressing hERG
# 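Also: peak tail current of the secondary pulse compared with the same well before compound.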
# Chain of human ether-à-go-go-related gene (hERG) potassium channel (Q12809 whole entry, looked up): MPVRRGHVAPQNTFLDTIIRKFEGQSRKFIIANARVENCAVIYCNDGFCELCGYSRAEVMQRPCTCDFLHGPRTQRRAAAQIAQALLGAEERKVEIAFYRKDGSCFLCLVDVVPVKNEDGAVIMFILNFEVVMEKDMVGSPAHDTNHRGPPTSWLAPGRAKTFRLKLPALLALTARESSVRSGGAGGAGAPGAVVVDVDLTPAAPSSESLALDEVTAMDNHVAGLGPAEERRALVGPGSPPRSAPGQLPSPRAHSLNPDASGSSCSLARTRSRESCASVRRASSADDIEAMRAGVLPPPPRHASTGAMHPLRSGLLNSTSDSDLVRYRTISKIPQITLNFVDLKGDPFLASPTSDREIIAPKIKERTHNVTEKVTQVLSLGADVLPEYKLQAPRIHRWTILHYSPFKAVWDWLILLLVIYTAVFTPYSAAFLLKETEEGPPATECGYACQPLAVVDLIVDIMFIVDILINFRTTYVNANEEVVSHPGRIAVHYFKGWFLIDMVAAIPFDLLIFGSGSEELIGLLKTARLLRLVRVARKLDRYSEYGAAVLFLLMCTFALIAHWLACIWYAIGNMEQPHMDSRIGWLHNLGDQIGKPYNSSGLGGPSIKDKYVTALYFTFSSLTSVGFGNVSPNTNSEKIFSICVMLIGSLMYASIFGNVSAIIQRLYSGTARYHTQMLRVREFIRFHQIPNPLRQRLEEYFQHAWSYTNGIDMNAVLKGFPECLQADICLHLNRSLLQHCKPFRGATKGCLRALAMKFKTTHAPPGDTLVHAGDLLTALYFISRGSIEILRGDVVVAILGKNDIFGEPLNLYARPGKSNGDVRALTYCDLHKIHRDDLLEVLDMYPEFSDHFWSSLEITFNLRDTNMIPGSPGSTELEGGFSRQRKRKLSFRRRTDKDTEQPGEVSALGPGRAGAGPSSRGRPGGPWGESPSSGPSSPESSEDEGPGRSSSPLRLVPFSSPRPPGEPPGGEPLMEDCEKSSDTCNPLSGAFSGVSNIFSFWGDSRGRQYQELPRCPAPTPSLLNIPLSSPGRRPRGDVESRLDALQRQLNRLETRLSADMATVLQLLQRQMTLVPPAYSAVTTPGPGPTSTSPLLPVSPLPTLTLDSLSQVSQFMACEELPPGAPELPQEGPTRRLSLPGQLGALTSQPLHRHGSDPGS
row,Structure (SMILES),"hERG current change (%, negative = inhibition) at 10uM"
1,Cc1cccc(NC(=S)NC(=O)CCc2ccccc2)c1C,8.45%
2,COc1ccc(/C=C2/C(=O)N(CC3CCCO3)C(=S)N2C)c(OC)c1 (centres unmarked),-16.9%
3,O=C(N/N=C/c1cccnc1)C(O)(c1ccccc1)c1ccccc1,-0.565%
4,CSc1cccc(NC(=O)c2cccc3cccnc23)c1,-1.48%
5,O=C1CCN(S(=O)(=O)c2cccs2)c2ccc(C(F)(F)F)cc2N1,5.03%
6,CCOC(=O)CC(/C(C)=N\O)c1ccccc1 (centres unmarked),9.47%
7,COc1ccc(CCNC(=O)COc2ccccc2[N+](=O)[O-])cc1OC,11.5%
8,CC(NC(=S)NC1CCC(C(C)(C)C)CC1)c1ccccc1 (centres unmarked),23.4%
9,CC(C)c1ccc(-c2csc3ncnc(N4CCN(C)CC4)c23)cc1,-21.6%
10,CCN(Cc1ccccc1)C(=O)CSc1nc(C)cc(=O)[nH]1,4.05%
11,N#CCc1ccc(Oc2ncccn2)cc1,22%
12,COc1cccc2c1OC1(C)CC2NC(=O)N1Cc1ccccc1 (centres unmarked),3.63%
13,CC1(C)C(c2ccccn2)=[N+]([O-])C(C)(C)N1O,7.81%
14,CCOC(=O)C1CCN(S(=O)(=O)CCNC(=O)c2ccc3c(c2)OCO3)CC1,-3.05%
15,Cc1ccc(-c2csc(-c3ccncc3)n2)cc1,4.73%
16,COc1ccccc1N(CC(=O)NCc1ccc(F)cc1)C(=O)CCC(=O)Nc1nccs1,5.13%
17,CCOC(=O)N1CCN(C(=O)/C=C/c2ccc([N+](=O)[O-])cc2)CC1,-70.6%
18,C=CCn1c(SCc2csc(-c3ccc(C)cc3)n2)nnc1-c1ccccc1OC,-33%
19,COc1ccc(S(=O)(=O)NCC(=O)Nc2ccc(F)cc2)cc1,0.186%
20,COc1cc2[nH]c(=O)n(CCCC(=O)NC3CCCCC3)c(=O)c2cc1OC,9.66%
21,Cc1cc(C)nc(-n2nc(C)c3c(C(=O)O)cc(-c4cccc(Br)c4)nc32)n1,3.73%
22,Cc1nn(CC(=O)OCC(=O)NCCc2ccc(S(N)(=O)=O)cc2)c(C)c1[N+](=O)[O-],8.19%
23,COC(=O)c1ccc2c(c1)nc(C)n2CCO,8.38%

row,Structure (SMILES),"hERG current change (%, negative = inhibition) at 10uM"
1,O=[N+]([O-])c1ccc(NCc2ccccc2)nc1,-20.9%
2,Cc1ccc(C(=O)CC(C(=O)O)n2cccn2)cc1 (centres unmarked),7.78%
3,COc1ccc(-c2nn(-c3ccccc3)cc2/C=C/C(=O)O)cc1[N+](=O)[O-],9.47%
4,O=C(Nc1ccc(N2CCOCC2)cc1)c1cc(F)c(F)cc1Cl,-6.76%
5,COc1ccccc1NC(=O)COC(=O)c1c[nH]c(=O)[nH]c1=O,17.4%
6,CCCCN(CC)CCNC(=O)c1cc2c(=O)n(C)c3ccccc3c2s1,-0.251%
7,COc1cccc(NC(=O)c2cn(C)c(=O)c3cc(OC)c(OC)cc23)c1,6.54%
8,CC(NC(=O)C1CCCC1)c1ccc(Br)cc1 (centres unmarked),6.19%
9,Cc1[nH]c2ccc(C(C)C)cc2c1CC(=O)O,18.7%
10,COc1ccc(COCC(O)CN(Cc2ccco2)Cc2ccccc2O)cc1 (centres unmarked),-4.98%
11,NNC(=O)c1cc2nc(-c3cccs3)cc(C(F)(F)F)n2n1,-44.1%
12,CSc1ccc(NC(=O)CSc2nc3[nH]c(=O)cc(O)c3s2)cc1,11.7%
13,CCCN(C(=O)c1ccco1)c1nnc(-c2ccccc2C)s1,-18.7%
14,Cc1cc(Cl)ccc1OCC(=O)Nc1nc(-c2cccnc2)cs1,9.71%
15,CCc1nnc(NC(=O)CSc2nnc(Cc3ccccc3)n2Cc2ccccc2)s1,6.21%
16,O=C(CN(Cc1ccccc1)S(=O)(=O)c1ccc(Br)cc1)NCC1CCCO1 (centres unmarked),-77.2%
17,CC(=O)c1ccc(NC(=O)c2ccc(-n3cncn3)c([N+](=O)[O-])c2)cc1,7.49%
18,N#C/C(=C\c1ccc(-c2ccc(C(=O)O)cc2)o1)C(=O)NCC1CCCO1 (centres unmarked),0.936%
19,COC(=O)C1=C(N)Oc2cc(C)n(CCc3ccccc3)c(=O)c2C1c1cccnc1 (centres unmarked),-25.9%
20,CC1CCN(CCNC(=O)C2CCCN(c3ncnc4c3nc3n4CCCCC3)C2)CC1 (centres unmarked),12.5%
21,CCOc1ccc(/C=C(\C#N)C(=O)NC2CC2)c(OCC)c1,-9.71%
22,COc1ccc(C)cc1S(=O)(=O)Nc1cccc(-c2ccc(N3CCCCCC3)nn2)c1,15.8%
23,O=C(CCCSc1nnc(-c2cccs2)n1CC1CCCO1)c1ccccc1 (centres unmarked),-65.1%

row,Structure (SMILES),"hERG current change (%, negative = inhibition) at 10uM"
1,O=C(NCCN1CCOCC1)C(=O)NCC1OCCN1S(=O)(=O)c1ccc(Br)cc1 (centres unmarked),3.46%
2,CCC(C)Nc1nc2c(c(=O)n(C)c(=O)n2C)n1Cc1ccc(Cl)cc1 (centres unmarked),-7.45%
3,CCCCn1nnc(NC(=O)COc2ccc(Cl)c(C)c2)n1,18.3%
4,COC(=O)c1ccc(Cn2c(C)cc(C)[n+]2C)o1.[I-],18%
5,CCCc1nnc(SCC(=O)N2CCOCC2)n1C,17.4%
6,O=C(OC(C(=O)NCC1CCCO1)c1ccccn1)c1cccs1 (centres unmarked),1.83%
7,CCN(CC)CCCN1C(=O)c2oc3ccccc3c(=O)c2C1c1cccnc1 (centres unmarked),11.6%
8,COc1ccccc1N(CC(O)Cn1ccnc1C)S(=O)(=O)c1ccc(C)cc1.Cl (centres unmarked),-39.3%
9,O=C(NC1CCCC1)C(c1ccsc1)N(C(=O)Cc1cccs1)c1ccc(F)cc1 (centres unmarked),21.2%
10,COc1ccccc1N(CC(=O)NC1CCCCC1)C(=O)CCC(=O)Nc1nccs1,-2.17%
11,O=C(COC(=O)CNC(=O)c1ccc(Cl)cc1Cl)NC1CCCCC1,1.89%
12,O=C(c1ccc(F)cc1)N1CCN=C1c1ccccc1,7.57%
13,CCN(CC(=O)N1CCCCCC1)S(=O)(=O)c1ccc(Cl)cc1,-13.5%
14,COc1cccc(CN2CCNC(=O)C2CC(=O)NCCOc2cccnc2)c1 (centres unmarked),-8.14%
15,COCCCNC(=S)NNC(=S)Nc1cccc(Cl)c1,20.7%
16,COc1ccc(C/C(C)=N/NC(=O)c2ccc(Cl)cc2)cc1,5.78%
17,CCc1cc2c(=O)n(-c3ccc(Br)cc3)cnc2s1,7.06%
18,Fc1cccc(-c2cc3nc4c(c(NCc5ccco5)n3n2)CCCC4)c1,-33.2%
19,O=C(CN1CCCCC1)Nc1ccc(S(=O)(=O)N2CCOCC2)cc1,-12.5%
20,Cc1nc2ccc(NC(=O)c3cccnc3)cc2s1.O=C(O)C(=O)O,1.03%
21,COc1cccc(NC(=O)CN(C)C(=O)CC2Sc3ccccc3NC2=O)c1 (centres unmarked),-36%
22,COc1ccccc1CNS(=O)(=O)c1c(C)nc2scc(C)n2c1=O,-8.78%
23,CC1(C)O[C@H]2CC(=O)OCC23[C@H]2CC[C@@]4(C)[C@H](c5ccoc5)OC(=O)[C@H]5O[C@]54[C@]2(C)C(=O)C[C@@H]13 (some centres unmarked),-2.63%

row,Structure (SMILES),"hERG current change (%, negative = inhibition) at 10uM"
1,Cc1cccc(NC(=O)CN2C(=O)C(C)Oc3ccccc32)n1 (centres unmarked),7.32%
2,NC(=O)c1cc2cc(Br)ccc2oc1=NCc1ccccc1,10.4%
3,O=C1CN(C(=O)CNCc2ccccc2)c2ccccc2N1,1.93%
4,CCCCN(C(=O)C(C)Oc1ccc(Cl)cc1)c1c(N)n(CCCC)c(=O)[nH]c1=O (centres unmarked),-17.1%
5,O=C(Nc1ccncc1)Nc1ccc(Cl)cc1,-6.33%
6,CCc1nnc(NC(=O)CSc2nc(-c3ccccc3)cc(-c3ccc(F)cc3)c2C#N)s1,8.43%
7,CCC(=O)NC(=S)Nc1ccc(NC(=O)c2ccco2)c(OC)c1,-7.8%
8,C=CCn1c(N2CCCCCC2)nc2c1c(=O)[nH]c(=O)n2C,5.65%
9,CC(=O)C1=C(O)C(=O)N(c2ccc(C)cc2)C1c1ccccn1 (centres unmarked),25.5%
10,Cc1cccc(NCc2ccccc2O)n1,6.89%
11,CCC(C)c1ccc2oc(-c3ccc(NC(=O)c4ncn[nH]4)cc3)nc2c1 (centres unmarked),-1.89%
12,COc1cccc(S(=O)(=O)NCc2ccc(C(=O)NCc3ccco3)cc2)c1,-11.8%
13,Cc1ccc(C(=O)Oc2ccc(C(=O)COC(=O)C3CC(=O)N(Cc4ccco4)C3)cc2)cc1 (centres unmarked),-14.4%
14,O=C(CN1CCN(C(=O)c2cccc(S(=O)(=O)N3CCCC3)c2)CC1)Nc1ccccc1Cl,-66.8%
15,Cc1ccc(C)c(N(CC(=O)Nc2cc(Cl)ccc2Oc2ccccc2)S(C)(=O)=O)c1,2.6%
16,C=CCN1C(=O)CN=C1NCc1ccccc1.Cl,8.01%
17,COc1ccccc1C(=O)OCC(=O)Nc1ccccc1OC(F)F,-19%
18,O=C(CCC(=O)N/N=C/c1ccc(Br)o1)N/N=C/c1ccc(Br)o1,-2.69%
19,COc1ccc(NC(=O)Cc2nnc(SCC(=O)NC3CCCCC3C)n2C)cc1 (centres unmarked),7.28%
20,COc1cc(/C=N\N=C2/SC(CC(=O)O)C(=O)N2c2ccc(O)cc2)ccc1O (centres unmarked),18.6%
